Several values for one entry are separate records, joined by “and”; a condition that tells them apart may be missing. Equal values may be shown once. Read-outs that look alike come from different tables or passages of the source.
How the values were obtained:
kappa opioid receptor [1] = target: T1, kappa opioid receptor (Cavia porcellus, UniProt P41144); assay: Library screening in competitive binding against kappa selective ligand [3H]U69,593 at 100 nM; set-up: from tissue; species or system guinea pig; conditions: for % Inhibition at 100 nm: versus kappa opioid selective ligand [3H]U69,593, selected library compounds; for % Inhibition: Kappa Receptor Assay, library compounds of formula (I) given by R1, R2, R3 (acid), screened at 100 nM
mu opioid receptor [2] = target: T2, mu opioid receptor (Cavia porcellus, UniProt A0ACM8Q262); assay: Inhibition of DAMGO-stimulated [35S]GTPγS binding in guinea pig caudate; type: biochemical; conditions: for Ki (radioligand)/Ki (GTPγS) binding ratio, mu receptor: mu receptor assays
delta opioid receptor [3] = target: T3, delta opioid receptor (Cavia porcellus, UniProt A0A286XTF2); assay: biochemical; type: biochemical, guinea pig
mu opioid receptor [4] = target: T2, mu opioid receptor; conditions: data taken from ref. 7; guinea pig brain membranes; read-out: Ki [3H]DAMGO (μ); cited from earlier work
kappa opioid receptor [5] = target: T1, kappa opioid receptor; type: biochemical, guinea pig; set-up: from tissue; conditions: for Ki (radioligand)/Ki (GTPγS) binding ratio, kappa receptor: kappa receptor assays
kappa opioid receptor [6] = target: T1, kappa opioid receptor; assay: Literature kappa binding assay with [3H]U69593, guinea pig brain membranes (ref. 7); set-up: from tissue; conditions: ratio of Ki values taken from ref. 7
mu opioid receptor [7] = target: T2, mu opioid receptor; conditions: data taken from ref. 1, cited from earlier work
delta opioid receptor [8] = target: T3, delta opioid receptor; conditions: data taken from ref. 1, cited from earlier work
kappa opioid receptor [9] = target: T1, kappa opioid receptor; set-up: from tissue; conditions: data taken from ref. 1, cited from earlier work
mu opioid receptor [10] = target: mu opioid receptor (Rattus norvegicus, UniProt P33535); set-up: using rat brain membranes prepared as described; from tissue; host or cells: rat brain membranes; conditions: data taken from ref. 1, cited from earlier work

**Q.** Which “% Inhibition at 100 nm” value (kappa opioid receptor [1]) does the source give for “N-{(2′S)-[3-(3,4-Dihydroxyphenyl)propanamido]-3′-methylbutyl}-(3R,4R)-dimethyl-4-(3-hydroxyphenyl)piperidine [Compound 16]” here?
**A.** 31%

**Q.** Which “% Inhibition at 100 nm” value (kappa opioid receptor [1]) does the source give for “N-{(2′S)-[3-(3-Methoxy-4-hydroxyphenyl)propanamido]-3′-methylbutyl}-(3R,4R)-dimethyl-4-(3-hydroxyphenyl)piperidine [Compound 17]” here?
**A.** 42%

**Q.** With `Oc1ccc2c3c1O[C@H]1c4[nH]c5c(c4C[C@@]4(O)[C@@H](C2)N(CC2CC2)CC[C@]314)C[C@@]1(O)[C@H]2Cc3ccc(O)c4c3[C@@]1(CCN2CC1CC1)[C@H]5O4` [1 (nor-BNI), norbinaltorphimine] as the molecule, how does the “slope factor (−nH / N), DAMGO” value (mu opioid receptor [2]; [35S]GTPγS assay) read?
**A.** (1.02 ± 0.09)

**Q.** What about the “Ki (radioligand)/Ki (GTPγS) binding ratio, mu receptor” value (mu opioid receptor [2]) of the same molecule?
**A.** 2.8

**Q.** What about the “slope factor (−nH / N), SNC80” value (delta opioid receptor [3]; [35S]GTPγS assay) of the same molecule?
**A.** (1.18 ± 0.12)

**Q.** What about the Ki (mu opioid receptor [4]) of the same molecule?
**A.** 47.2 ± 3.3 nM

**Q.** And the “slope factor (−nH / N), U69,593” value (kappa opioid receptor [5]; [35S]GTPγS assay)?
**A.** (0.97 ± 0.12)

**Q.** And the Ki (kappa opioid receptor [5]; guinea pig caudate, Ki ± SD, read-out: Ki, inhibition of U69,593 (κ) stimulated [35S]GTPγS binding)?
**A.** 0.038 ± 0.005 nM

**Q.** What about the “Ki (radioligand)/Ki (GTPγS) binding ratio, kappa receptor” value (kappa opioid receptor [5]) of the same molecule?
**A.** 7.36

**Q.** What about the δ/κ (kappa opioid receptor [6]) of the same molecule?
**A.** 150

**Q.** What about the μ/κ (kappa opioid receptor [6]) of the same molecule?
**A.** 181

**Q.** Which “% Inhibition” value (kappa opioid receptor [1]) does the source give for “N-{(2′S)-[3-(4-Hydroxyphenyl)-N-methylpropanamido]-2′-phenylethyl}-(3R,4R)-dimethyl-4-(3-hydroxyphenyl)piperidine [Compound 23]” here?
**A.** 7%

**Q.** What about the “% Inhibition at 100 nm” value (kappa opioid receptor [1]) of the same molecule?
**A.** 7%

**Q.** Which results are given for “N-{(2′S)-[3-(2-Hydroxyphenyl)propanamido]-3′-methylbutyl}-(3R,4R)-dimethyl-4-(3-hydroxyphenyl)piperidine [Compound 12]”?
**A.** % Inhibition (kappa opioid receptor [1]): 18%; % Inhibition at 100 nm (kappa opioid receptor [1]): 25%

**Q.** What does the source list for `C[C@H]1CN(CC[C@H](O)C2CCCCC2)CC[C@@]1(C)c1cccc(O)c1` [Compound 5d]?
**A.** Ki (radioligand)/Ki (GTPγS) binding ratio, mu receptor (mu opioid receptor [2]): 15; Ki (radioligand)/Ki (GTPγS) binding ratio, kappa receptor (kappa opioid receptor [5]): 85

**Q.** For “N-{2′-[3-(4-Hydroxyphenyl)-N-methylpropanamido]ethyl}-(3R,4R)-dimethyl-4-(3-hydroxyphenyl)piperidine [Compound 21]”, which “% Inhibition” value (kappa opioid receptor [1]) is on record?
**A.** 0%

**Q.** Which “% Inhibition” value (kappa opioid receptor [1]) does the source give for “N-{(2′S)-[3-(3-Hydroxyphenyl)propanamido]-3′-methylbutyl}-(3R,4R)-dimethyl-4-(3-hydroxyphenyl)piperidine [Compound 11]” here?
**A.** 20%

**Q.** And the “% Inhibition at 100 nm” value (kappa opioid receptor [1])?
**A.** 20%

**Q.** For “N-{(2′S)-[(3-Phenylpropanamido)-3′-methyl]butyl}-(3R,4R)-dimethyl-4-(3-hydroxyphenyl)piperidine [Compound 10]”, which “% Inhibition” value (kappa opioid receptor [1]) is on record?
**A.** 28%

**Q.** What about the “% Inhibition at 100 nm” value (kappa opioid receptor [1]) of the same molecule?
**A.** 28%

**Q.** Which results are given for `CN1CCC2(c3cccc(O)c3)Cc3ccccc3CC2(C)C1` (racemic) [Compound 7, (±)-1,2,3,4,4a,5,10,10a-octahydro-4a-(3-hydroxyphenyl)-2,10a-dimethylbenzo-[g]isoquinoline]?
**A.** slope factor (−nH / N), DAMGO (mu opioid receptor [2]; [35S]GTPγS assay): (0.94 ± 0.06); Ki (delta opioid receptor [3]): 222 ± 30.7 nM; slope factor (−nH / N), SNC80 (delta opioid receptor [3]; [35S]GTPγS assay): (0.78 ± 0.09); slope factor (−nH / N), U69,593 (kappa opioid receptor [5]; [35S]GTPγS assay): (1.10 ± 0.14)

**Q.** For `CC1C2CCCC1(c1cccc(O)c1)CCN2CCc1ccccc1` (stereo not drawn) [Compound 5c, 5-(3-Hydroxyphenyl)-9β-methyl-2-(2′-phenylethyl)-2-azabicyclo[3.3.1]nonane], which “increase in antagonist potency at mu, N-phenethyl vs N-methyl (5b)” value (mu opioid receptor [2]; [35S]GTPγS assay) is on record?
**A.** 63 fold

**Q.** What about the Ki (mu opioid receptor [2]; guinea pig caudate, Ki ± SD, read-out: Ki, inhibition of DAMGO (μ) stimulated [35S]GTPγS binding) of the same molecule?
**A.** 0.338 ± 0.028 nM

**Q.** And the “Ki (radioligand)/Ki (GTPγS) binding ratio, mu receptor” value (mu opioid receptor [2])?
**A.** 43

**Q.** What about the “increase in antagonist potency at delta, N-phenethyl vs N-methyl (5b)” value (delta opioid receptor [3]; [35S]GTPγS assay) of the same molecule?
**A.** 60 fold

**Q.** And the Ki (delta opioid receptor [3]; guinea pig caudate, Ki ± SD, read-out: Ki, inhibition of SNC80 (δ) stimulated [35S]GTPγS binding)?
**A.** 12.6 ± 1.01 nM

**Q.** What about the “increase in antagonist potency at kappa, N-phenethyl vs N-methyl (5b)” value (kappa opioid receptor [5]; [35S]GTPγS assay) of the same molecule?
**A.** 70 fold

**Q.** And the “Ki (radioligand)/Ki (GTPγS) binding ratio, kappa receptor” value (kappa opioid receptor [5])?
**A.** 63

**Q.** With `O=C1CC[C@@]2(O)[C@H]3Cc4ccc(O)c5c4[C@@]2(CCN3CC2CC2)[C@H]1O5` [naltrexone] as the molecule, how does the “slope factor (−nH / N), DAMGO” value (mu opioid receptor [2]; [35S]GTPγS assay, listed as 1, naltrexone) read?
**A.** (1.00 ± 0.22)

**Q.** For “N-{(2′S)-[3-(4-Hydroxyphenyl)-N-methylpropanamido]propyl}-(3R,4R)-dimethyl-4-(3-hydroxyphenyl)piperidine [Compound 22]”, which “% Inhibition” value (kappa opioid receptor [1]) is on record?
**A.** 1%

**Q.** And the “% Inhibition at 100 nm” value (kappa opioid receptor [1])?
**A.** 1%

**Q.** For “N-{(2′S)-[(4-Hydroxyphenyl)acetamido]-3′-methylbutyl}-(3R,4R)-dimethyl-4-(3-hydroxyphenyl)piperidine [Compound 13]”, which “% Inhibition” value (kappa opioid receptor [1]) is on record?
**A.** 6%

**Q.** And the “% Inhibition at 100 nm” value (kappa opioid receptor [1])?
**A.** 6%

**Q.** For “N-{(2′S)-[3-(4-Hydroxyphenyl)propanamido]propyl}-(3R,4R)-dimethyl-4-(3-hydroxyphenyl)piperidine [Compound 20]”, which “% Inhibition” value (kappa opioid receptor [1]) is on record?
**A.** 11%

**Q.** And the “% Inhibition at 100 nm” value (kappa opioid receptor [1])?
**A.** 20%

**Q.** With “N-{(2′S)-[3-(4-Hydroxyphenyl)propanamido]-3′-methylbutyl}-(3R,4R)-dimethyl-4-(3-hydroxyphenyl)piperidine [Compound 8]” as the molecule, how does the “% Inhibition” value (kappa opioid receptor [1]) read?
**A.** 70%

**Q.** Which “% Inhibition” value (kappa opioid receptor [1]) does the source give for “N-{(2′S)-[trans-3-(4-Hydroxyphenyl)acrylamido]-3′-methylbutyl}-(3R,4R)-dimethyl-4-(3-hydroxyphenyl)piperidine [Compound 14]” here?
**A.** 15%

**Q.** With “(+)-N-[trans-4-phenyl-2-butenyl]-(3R,4R)-dimethyl-4-(3-hydroxyphenyl)piperidine [Compound 5a]” as the molecule, how does the “Ki (radioligand)/Ki (GTPγS) binding ratio, mu receptor” value (mu opioid receptor [2]) read?
**A.** 19

**Q.** What about the “slope factor (−nH), DAMGO” value (mu opioid receptor [7]) of the same molecule?
**A.** (1.06 ± 0.07)

**Q.** What about the Ki (mu opioid receptor [7]; read-out: Ki, inhibition of DAMGO (μ) stimulated [35S]GTPγS binding) of the same molecule?
**A.** 0.039 ± 0.003 nM

**Q.** What about the “slope factor (−nH), SNC80” value (delta opioid receptor [8]) of the same molecule?
**A.** (1.19 ± 0.08)

**Q.** And the Ki (delta opioid receptor [8]; read-out: Ki, inhibition of SNC80 (δ) stimulated [35S]GTPγS binding)?
**A.** 1.48 ± 0.094 nM

**Q.** And the “Ki (radioligand)/Ki (GTPγS) binding ratio, kappa receptor” value (kappa opioid receptor [5])?
**A.** 118

**Q.** What about the “slope factor (−nH), U69,593” value (kappa opioid receptor [9]) of the same molecule?
**A.** (1.07 ± 0.06)

**Q.** And the Ki (kappa opioid receptor [9]; read-out: Ki, inhibition of U69,593 (κ) stimulated [35S]GTPγS binding)?
**A.** 1.04 ± 0.061 nM

**Q.** And the “slope factor (-nH) [3H]DAMGO” value (mu opioid receptor [10])?
**A.** (0.89 ± 0.09)

**Q.** What about the Ki (mu opioid receptor [10]; read-out: Ki [3H]DAMGO (μ)) of the same molecule?
**A.** 0.74 ± 0.05 nM

**Q.** What does the source list for “N-{2′-[3-(4-Hydroxyphenyl)propanamido]ethyl}-(3R,4R)-dimethyl-4-(3-hydroxyphenyl)piperidine [Compound 19]”?
**A.** % Inhibition (kappa opioid receptor [1]; listed as H/H/PP6, 0.1 µM): 14% and 11%; % Inhibition at 100 nm (kappa opioid receptor [1]): 11%

**Q.** Which results are given for `CC(C)[C@H](CN1CC[C@@](C)(c2cccc(O)c2)[C@@H](C)C1)NC(=O)CCc1ccc(O)cc1` [Compound 9]?
**A.** % Inhibition (kappa opioid receptor [1]): 11%; % Inhibition at 100 nm (kappa opioid receptor [1]): 11%

**Q.** Which “% Inhibition at 100 nm” value (kappa opioid receptor [1]) does the source give for “N-{(2′S)-[3-(4-Fluorophenyl)propanamido]-3′-methylbutyl}-(3R,4R)-dimethyl-4-(3-hydroxyphenyl)piperidine [Compound 15]” here?
**A.** 26%

— US6531481B2 (priority 1998, dated 2003)
